Measured values as given in PubChem BioAssay AID624417 (National Center for Advancing Translational Sciences (NCATS), 2012).
Screen size: about 410,000 compounds; about 6,400 (1.6%) were called active. This list was built around the results that the source calls inconclusive (neither active nor inactive); the mix of calls is not that of the screen. Calls follow the shape of the dose curve; as a rule, active = well fitted inhibition curve with a large enough effect; inconclusive = small, poorly fitted or top-dose-only effect; inactive = no such curve, though single readings can be large or run the other way. No potency is given beside an inconclusive call; the fits are too rough.

Each compound was assayed against Glucagon-like peptide 1 receptor (Homo sapiens) (UniProt P43220) (assay: qHTS of GLP-1 Receptor Inverse Agonists (Inhibition Mode)). Conditions: HEK293 GLP-1R CRE-luciferase, luminescence, 24 h, GLP-1R form is constitutively active; activity change, negative = inhibition: at 38.3 µM (top of the series) unless noted.
Procedure, shortened: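 Inverse agonists were sought by their lowering of basal cAMP reporter luciferase output in HEK293 cells stably carrying constitutively active human GLP-1R, after 24 h compound treatment.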
% is scaled to controls: 0 for no effect and ±100 for the full control effect; potency is read from the fitted curve at half-maximal effect; tags tell the direction and shape of the fitted curve.
Also: nearly all actives have a fitted effect of over 55% in size.

Chain of UniProt P43220 (P43220 whole entry, looked up): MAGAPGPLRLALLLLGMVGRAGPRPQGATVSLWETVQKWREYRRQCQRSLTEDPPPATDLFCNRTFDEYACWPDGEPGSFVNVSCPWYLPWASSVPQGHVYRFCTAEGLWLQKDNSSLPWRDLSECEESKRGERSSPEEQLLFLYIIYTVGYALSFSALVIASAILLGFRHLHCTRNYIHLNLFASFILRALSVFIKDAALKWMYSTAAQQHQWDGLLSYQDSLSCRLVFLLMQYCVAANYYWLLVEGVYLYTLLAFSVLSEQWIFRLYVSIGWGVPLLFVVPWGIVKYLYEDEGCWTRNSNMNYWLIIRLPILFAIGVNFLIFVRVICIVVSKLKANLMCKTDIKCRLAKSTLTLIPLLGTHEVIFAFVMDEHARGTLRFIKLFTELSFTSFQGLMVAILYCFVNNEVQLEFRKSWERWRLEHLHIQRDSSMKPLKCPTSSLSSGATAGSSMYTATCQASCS

Q: Which Potency does the source give for `Cc1sc2ncn(CC(=O)N3CCN(c4cccc(Cl)c4)CC3)c(=O)c2c1S(=O)(=O)N1CCC(C)CC1` here?
A: inconclusive [inhibitor, single point]

Q: For `CC(O)CNc1nc2ccccc2n1CC(=O)NCCc1ccc(Cl)cc1` (configuration not stated), which Potency is on record?
A: inconclusive [inhibitor, single point]

Q: For `Cc1cc(C)c(C(=O)N2CCCC(N3CCN(c4ccc(F)cc4)CC3)C2)o1` (configuration not stated), which Potency is on record?
A: inconclusive [inhibitor, single point]

Q: For `CC(=O)OCC1(C)CN(c2ccccc2)N(C(=O)c2ccc(C(C)(C)C)cc2)C1=O` (configuration not stated), which Potency is on record?
A: inconclusive [inhibitor, partial curve, poor fit]

Q: With `C=CCOc1ccccc1C(=O)/C=C1/C(=O)Nc2ccccc21` as the compound, how does the Potency read?
A: inconclusive [inhibitor, partial curve, poor fit]

Q: Which Potency does the source give for `CCOC(=O)c1cccc(Nc2nc(-c3cccnc3)nc3ccccc23)c1` here?
A: inconclusive [inhibitor, partial curve, poor fit]

Q: Which Potency does the source give for `CCc1ccc(-c2cc(C)no2)cc1S(=O)(=O)NCc1ccc(OC)cc1` here?
A: inconclusive [inhibitor, full curve, poor fit]

Q: `CC12COC3(C(=O)Nc4nccs4)CC1CCC32C` (configuration not stated) was tested. Which Potency did it give?
A: inconclusive [inhibitor, partial curve, poor fit]

Q: `Cc1noc(C)c1COc1ccccc1C(=O)NC1CCC(C)CC1` (configuration not stated) was tested. Which Potency did it give?
A: inconclusive [inhibitor, single point]

Q: For `CCCC(=O)NC(c1ccco1)c1c(O)ccc2ccccc12` (configuration not stated), which Potency is on record?
A: inconclusive [inhibitor, single point]

Q: Which “activity change, negative = inhibition” value does the source give for `Cc1cc(C)nc(NC(=O)c2ccc(Cl)cc2Cl)n1` here?
A: inactive: 11.9%

Q: With `CCOCCOc1cc(NCc2ccccc2)c2ncn(C(C)C)c2c1` as the compound, how does the Potency read?
A: inconclusive [inhibitor, single point]

Q: For `COc1ccc(C2CC(c3ccccc3O)=NN2C(=O)c2ccccc2)cc1OC` (configuration not stated), which Potency is on record?
A: inconclusive [inhibitor, single point]

Q: How did the Potency turn out when `O=C(Nc1nsc(-c2ccccc2)n1)c1cccs1` was run?
A: inconclusive [inhibitor, single point]

Q: Which Potency does the source give for `COc1ccc(-c2ccc(/C=C3/C(=N)N4C(C)=CSC4=NC3=O)o2)c([N+](=O)[O-])c1` here?
A: inconclusive [inhibitor, partial curve, poor fit]

Q: How did the “activity change, negative = inhibition” value turn out when `Fc1ccc(NCc2ccccc2-c2nnc(-c3ccccc3Cl)o2)cc1Cl` was run?
A: inactive: 15.6%

Q: With `Cc1ccccc1CN1C(=O)C(C)S/C1=N/N=C/c1ccco1` (configuration not stated) as the compound, how does the Potency read?
A: inconclusive [inhibitor, partial curve, poor fit]
